Results as given in paper PMC6919601, “Identification of Plasmodium dipeptidyl aminopeptidase allosteric inhibitors by high throughput screening” (PLoS ONE, 2019).
Where “and” joins values, the source holds several entries; their conditions need not be identical. Identical values can stand only once. The whole screen tested about 110,000 compounds, of which about 230 (0.21%) showed an effect of 50% or more. The list shows a part of the results.

These compounds were tested against DPAP1 (Plasmodium falciparum, UniProt Q8IIJ9) (assay: primary screen, percent inhibition; read by cleavage of a fluorogenic dipeptide substrate; higher = more effect of the substance).
Chain of DPAP1 (Q8IIJ9 whole entry, looked up): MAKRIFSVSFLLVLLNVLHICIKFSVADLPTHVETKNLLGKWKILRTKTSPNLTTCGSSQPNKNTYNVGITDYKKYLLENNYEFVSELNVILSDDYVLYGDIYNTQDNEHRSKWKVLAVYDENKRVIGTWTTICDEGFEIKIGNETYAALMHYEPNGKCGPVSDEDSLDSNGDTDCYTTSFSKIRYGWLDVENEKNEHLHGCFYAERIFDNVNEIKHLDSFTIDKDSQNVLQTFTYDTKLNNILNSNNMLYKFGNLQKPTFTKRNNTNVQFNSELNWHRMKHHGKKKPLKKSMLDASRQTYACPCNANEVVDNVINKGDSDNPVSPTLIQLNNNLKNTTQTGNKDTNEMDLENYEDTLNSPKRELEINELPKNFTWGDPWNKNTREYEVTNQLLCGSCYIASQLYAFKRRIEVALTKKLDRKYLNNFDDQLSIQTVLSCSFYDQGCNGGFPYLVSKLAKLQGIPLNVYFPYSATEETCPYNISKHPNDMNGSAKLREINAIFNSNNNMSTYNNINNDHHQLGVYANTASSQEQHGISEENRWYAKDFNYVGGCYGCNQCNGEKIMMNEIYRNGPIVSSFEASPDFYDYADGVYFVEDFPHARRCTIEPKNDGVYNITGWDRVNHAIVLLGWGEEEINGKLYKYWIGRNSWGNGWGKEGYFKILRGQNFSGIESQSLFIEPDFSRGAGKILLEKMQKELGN
Set-up: species or system P. falciparum D10 trophozoite lysates; single well
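Note: 30 min substrate incubation versus DMSO and 10 µM JCP410 controls.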

SMILES | % Inhibition @ 10 uM
CC(C)N1CCN(c2ccc(S(=O)(=O)N3CCOCC3)cn2)CC1 | -8.92%
CCN(CC)S(=O)(=O)c1ccc(C(=O)NCCSc2c(C)[nH]c3ccccc23)cc1 | -1.73%
N#CCNC(=O)C(CCc1ccc(F)cc1Cl)NC(=O)OCc1ccccc1 (stereo not drawn) | 2.87%
COc1ccc(C2(CN)CCOCC2)cc1OC | 3.44%
O=C(Nc1cccc2c1CCCC2)c1ccc(Cl)cc1Cl | -4.15%
CCC(C)NC(=O)CCn1c(-c2ccc(F)cc2)cc(C(C)=O)c1C (stereo not drawn) | 4.61%
O=C(CCC(=O)Nc1sc2c(c1C(=O)O)CCCC2)Nc1sc2c(c1C(=O)O)CCCC2 | 5.92%
COc1ccc(CN2CCN(Cc3ccccc3OC)CC2)c(OC)c1 | -2.17%
O=C(Nc1cnn(Cc2ccc(Cl)cc2Cl)c1)c1cc(-c2ccc(O)cc2)on1 | -2.65%
CC(=O)N1N=C(c2ccc(C)cc2)CC1c1ccccc1F (stereo not drawn) | -1.1%
CC(C)Cn1c(=O)c2sccc2n2c(CCCC(=O)NC3CCC(C)CC3)nnc12 (stereo not drawn) | -3.01%
COc1cc(/C=C/c2nc(C#N)c(NCCN(C)C)o2)cc(OC)c1OC | 2.54%
Cc1cccc(OCC(=O)Nc2nonc2NC(=O)COc2cccc(C)c2)c1 | 0.231%
COc1cccc(-c2nn3c(C4COc5ccccc5O4)nnc3s2)c1 (stereo not drawn) | 1.25%
CC(Oc1ccc(Cl)cc1Cl)C(=O)Nc1cccc(F)c1 (stereo not drawn) | -2.03%
c1coc(CN2CCc3c([nH]c4ccccc34)C2)c1 | 2.23%
C#CCOc1ccc(/C=C2\NC(=O)N(Cc3ccc(Cl)cc3)C2=O)cc1OC | -1.25%
COc1ccc(-c2noc(N(C)CC(=O)NCCC3=CCCCC3)n2)cc1 | -0.522%
Cn1nc(-c2ccc(Cl)cc2)c2cc(C(=O)N3CCN(c4ccccn4)CC3)sc21 | -3.09%
Cc1ccc(CNC(=O)CCCn2c(=O)c3sccc3n(Cc3ccccc3C#N)c2=O)cc1 | -5.09%
CS(=O)(=O)N(CC(=O)N1CCN(c2ccccc2)CC1)c1ccc(Cl)c(Cl)c1 | -1.82%
Cc1nc2nc(SCC(=O)NCC3CCCO3)nn2c(C)c1Cc1c(F)cccc1Cl (stereo not drawn) | 17.4%
CCc1ccc(S(=O)(=O)Nc2ccc(-c3csc(C)n3)cc2)cc1 | -3.09%
Cc1c(Cl)c(C(=O)Nc2cccc(S(=O)(=O)N3CCOCC3)c2)nn1C | -6.69%
CCN(CC)CCN(C)Cc1cccc(Cl)c1Cl | 5.03%

SMILES | % Inhibition @ 10 uM
CCCN1CC2=C(OC(N)=C(C#N)C2c2ccccc2)/C(=C\c2ccccc2)C1 (stereo not drawn) | -4.03%
C/C(O)=C\C(C)=N\C(C)C(=O)O (stereo not drawn) | 0.736%
COc1ccc(OC)c(C2C(C(=O)c3ccc(C)cc3)=C(O)C(=O)N2CCCC(=O)O)c1 (stereo not drawn) | -13.9%
CCCC12CN3CC(C)(CN(C1)C3c1c(C)n(C)c3ccccc13)C2=O (stereo not drawn) | 1.67%
COc1ccc(S(=O)(=O)N2CCC(C#N)(c3ccccc3)CC2)cc1N | 7.02%
N#CCNC(=O)[C@H](CC1CCCCC1)NC(=O)c1cccc(N)c1 | -1.83%
COc1ccc(-c2cc(C(=O)N3CCCCC3)c3ccccc3n2)c(OC)c1 | 5.31%
COc1ccccc1C(=O)NCc1nc2ccccc2n1Cc1ccccc1F | -8.18%
Cc1[nH]c2ccc(Br)cc2c1CCNC(=O)c1cccs1 | -8.94%
CC(NC(=O)c1ccccc1OCC(=O)NC12CC3CC(CC(C3)C1)C2)c1ccccc1 (stereo not drawn) | -1.24%
COc1ccccc1C(NC(C)=O)c1c(O)ccc2ccccc12 (stereo not drawn) | -5.05%
CCn1cc(/C=C(\NC(=O)c2ccc(OC)cc2)C(=O)N2CCCC2)c2ccccc21 | -1.74%
CCCOc1ccccc1NC(=O)CC1Sc2ccccc2NC1=O (stereo not drawn) | 1.24%
COc1cc2oc(=O)c(CC(=O)NCc3ccc4c(c3)OCO4)c(C)c2cc1Cl | 2.54%
CN(C)CCCn1cnc2ccccc21 | -0.582%
Cn1nc(C(=O)NC2CCCc3ccccc32)c2c1-c1ccccc1SC2 (stereo not drawn) | 9.28%
CCCCNC(=O)CCc1nnc2ccc(N3CCCC3)nn12 | -3.73%
CCCCSCCCNC(=O)c1cc(O)nc2ccc(Br)cc12 | -3.58%
COC(=O)c1cc(S(=O)(=O)N2CCN(c3ccc(N4CCOCC4)nn3)CC2)cn1C | -5.47%
CCOc1ccc(-c2nc(SCC(=O)Nc3nccs3)c(-c3ccccc3)[nH]2)cc1OC | 1.85%
C#CCOc1c(CC=C)cc(/C=C2/NC(=O)NC2=O)cc1OCC | -5.63%
Cc1ccc(S(=O)(=O)N2CCC(C(=O)N3CCN(Cc4ccc5c(c4)OCO5)CC3)CC2)cc1 | -1.26%
CC1CC(C)(C)NC(=S)N1CCCC(=O)N1CCN(c2ccccn2)CC1 (stereo not drawn) | -3.31%
C=CCN1C(=O)S/C(=C/c2cc(Cl)cc(Br)c2O)C1=O | 3%
CC(NCc1ccccc1)C1COc2ccccc2O1 (stereo not drawn) | -5.15%

SMILES | % Inhibition @ 10 uM
COC(=O)c1[nH]c2ccc(F)cc2c1N | 1.32%
Cc1cccc(Cn2c(C)c(C)c3cc(C(=O)NCC4CCCO4)ccc32)c1 (stereo not drawn) | -5.09%
O=C(O)c1ccc(CSc2nc3n(n2)C(c2cccs2)C2=C(O)CCCC2=N3)cc1 (stereo not drawn) | -3.45%
Clc1ccc(-c2[nH]c(-c3cccnc3)nc2-c2ccccc2)cc1 | -0.0108%
CCOCCCNC(=O)c1nnc(Cc2ccc3c(c2)OCO3)o1 | -2.78%
CCCCN(CC)CCNC(=O)c1ccc2c(Cl)c3c(nc2c1)CCC3 | -0.495%
CC(C)C[C@H](NC(=O)NC(C)(C)C)C(=O)NCC#N | 3.19%
Cc1cc(Oc2nc3c(C)cccn3c(=O)c2/C=C(\C#N)S(=O)(=O)c2ccccc2)ccc1Cl | 2%
O=C(O)c1cccc(NC(=O)c2ccc(N3C(=O)C4CCCCC4C3=O)cc2)c1 (stereo not drawn) | -0.884%
CCC1(C)Cc2c(sc3nc(SC)n4c(S)nnc4c23)CO1 (stereo not drawn) | -4.93%
CC(Nc1oc(/C=C/c2ccc(F)cc2)nc1C#N)c1ccccc1 (stereo not drawn) | -4.39%
Cc1ccc(COc2ccc3oc(C)c(C(=O)O)c3c2)cc1 | -2.15%
CC1CCC(C(C)C)C(OCC(O)CN2CCN(c3ccc(F)cc3)CC2)C1 (stereo not drawn) | 4.22%
O=C(O)C1CCCCC1C(=O)Nc1ccc(F)cc1F (stereo not drawn) | 2.03%
CC(C)c1ccc(CN(CCO)CCO)cc1 | -2.34%
Cc1cc(C)c2c(n1)nn1c(C)c(CCC(=O)NCC3CCCO3)c(C)nc21 (stereo not drawn) | -2.45%
CC1CCN(C(=O)CSc2nc(-c3ccc(C(C)(C)C)cc3)nc3cc(=O)[nH]n23)CC1 | 1.8%
COc1ccc2[nH]c3c(c2c1)CC(C)NC3=O (stereo not drawn) | -0.436%
Cc1ccc(NC(=O)CN2C(=O)N/C(=C/c3ccc(C(C)C)cc3)C2=O)cc1 | 2.24%
N#C/C(=C\c1c(Oc2ccccc2)nc2ccccn2c1=O)C(=O)N1CCCCC1 | 1.19%
COc1ccc(/C=C/C(=O)c2ccc(OC)cc2OC)c(OC)c1 | -4.08%
O=C(Nc1ccc(F)cc1F)c1ccc(F)cc1 | -3.03%
CCCN1CCN(C(=O)Cn2nc(C)n3c(cc4sccc43)c2=O)CC1 | 4.95%
Cc1ccc2cc(CCNC(=O)c3cc4ccccc4o3)c(O)nc2c1 | 1.39%
CCc1c(C)sc(NC(=O)c2cc(-c3ccccc3OC)on2)c1C#N | -1.28%

SMILES | % Inhibition @ 10 uM
CC1(C(=O)NCc2ccco2)CC2c3ccccc3C1c1ccccc12 (stereo not drawn) | -2.16%
Cc1c2cnn(CC(=O)NCCc3c[nH]c4ccccc34)c(=O)c2c(C)n1Cc1ccccc1 | 1.22%
CC1CCc2nn(CC(=O)NC(C)c3ccccc3)cc2C1 (stereo not drawn) | 0.137%
O=C1CCCN1CCNC(=S)Nc1ccccc1 | -5.33%
CCOC(=O)c1cnc2cc(F)c(F)cc2c1N1CCCC1 | 2.77%
Cc1c(Cl)c(C(=O)Nc2ccc(N(C)C)cc2)nn1C | -0.661%
O=C1c2ccccc2C(=O)N1CC(=O)N1CCCc2ccccc21 | -3.26%
Cc1ccc(-c2cn3nc(N4CCCC(C(=O)NCc5ccccc5C)C4)sc3n2)cc1 (stereo not drawn) | 0.95%
Nc1cc(O)nc(SCC(=O)N2CCCc3ccccc32)n1 | -4.01%
Cc1cc2c(c(O)n1)C(=O)O/C2=C\c1cccs1 | -0.415%
COc1ccccc1CNCc1c(C(=O)O)n(Cc2ccc(F)cc2Cl)c2cc(C)ccc12 | -8.04%
O=C(c1ccc(F)cc1)N1CCC(C(=O)N(Cc2ccccc2)Cc2ccccc2)CC1 | 3.47%
Cc1ccc(-n2nnc(-c3nc(-c4cccs4)no3)c2N)cc1 | -1.35%
Cn1c(=O)c2ncn(CC(=O)Nc3ccc4c5c(cccc35)CC4)c2n(C)c1=O | -3.43%
Cc1ccc(C)c(OCC(O)CN2CCN(c3ccccc3F)CC2)c1 (stereo not drawn) | 6.73%
CCOC(=O)c1c(C)[nH]c(C)c1S(=O)(=O)N1CCN(Cc2ccccc2)CC1 | 4.25%
C=CCOc1ccc(C(=O)N(Cc2ccccc2F)C2CCS(=O)(=O)C2)cc1 (stereo not drawn) | -3.12%
COc1cccc(OC)c1C(=O)NCCc1ccccc1 | 14.9%
CCOC(=O)N1CCc2[nH]c3ccc(OC)cc3c2C1 | 6.94%
O=c1oc2ccccc2c(Cl)c1CN1CCCC1 | 6.83%
CCN1CCN(Cc2cccc(OC)c2)CC1 | 3.25%
CCOc1ccccc1C(=O)Nc1nc(-c2ccccc2)cs1 | 4.3%
O=C(Cn1nc(C(F)(F)F)cc1C1CC1)NCc1ccco1 | 5.92% and -3.19%
Cc1ccc(NC(=O)CCC(=O)c2c[nH]c3ccccc23)cc1 | -2.51%
